# Test results reported in PubChem BioAssay AID1508623 (National Center for Advancing Translational Sciences (NCATS), 2021).
# Among all 48,000 compounds or so, about 450 (0.94%) were called active. Another 19% or so got no clear call; they are omitted. The call rests on the fitted dose curve; in most records, active means well fitted inhibition curve with a large enough effect; inconclusive means small, poorly fitted or top-dose-only effect; inactive means no such curve, though single readings can be large or run the other way. The list shows a part of the results.
# Experiment: Primary qHTS for Identification of Small Molecule Inhibitors of Huntingtin Promoter Activity; further: nearly all actives have a fitted effect of over 50% in size
# Settings: HEK293 HTT promoter firefly luciferase reporter (activity 0% = vehicle and -100% = no light), 24 h; series mostly up to 57.5 µM; activity change, negative = inhibition: at the top concentration
# Method in brief: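 HEK293 luciferase promoter-reporter cells (2,500/well) plated 24 h, then compounds added at up to 57.5 uM final for 24 h at 37 °C. Firefly luminescence by Dual-Glo, normalized to vehicle (0%) and zero RLU (-100%).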
row,Compound,"activity change, negative = inhibition"
1,COc1ccccc1CNC(=O)c1cc2c(s1)-c1ccccc1OC2,inactive: 10.2%
2,COCCNC(=O)Cn1c(=O)n(CCCCCC(=O)Nc2ccccc2)c(=O)c2sccc21,inactive: 18.1%
3,COc1ccc(/C=C(\C#N)c2nc3ccccc3n2C)c(OC)c1,inactive: 65.8%
4,O=S(=O)(c1ccccc1)c1nnn2c1nc(NCc1ccccc1)c1sccc12,inactive: 2.46%
5,Cc1ccc(Cl)cc1N1CCN(C(=O)CN2C(=O)CSc3c2c(C)nn3-c2ccccc2)CC1,inactive: -7.95%
6,COc1cccc(NC(=O)c2cnc(SCC(=O)N3CCOCC3)n(C)c2=O)c1,inactive: 20.2%
7,CCc1ccc2c(c1)-c1ccccc1S(=O)(=O)N2CC(=O)N1CCCCC1,inactive: 26.4%
8,COc1ccc(-c2cn3c(n2)sc2cc(C(=O)NCCc4ccc(OC)cc4OC)ccc23)cc1,inactive: -11%
9,CN(C/C=C/c1ccccc1)Cc1cccc2ccccc12,inactive: -7.51%
10,CCc1ccc(CNC(=O)c2c(C)oc3ncn(CC(C)C)c(=O)c23)cc1,inactive: 0%
11,COc1cc(Cl)c(C)cc1NC(=O)Cn1ncc2c3ccccc3n(Cc3ccccc3)c2c1=O,inactive: -8.44%
12,CCN(CC)CCCNC(=O)CN1N=C(c2ccc(OC)cc2)CCC1=O,inactive: 4.47%
13,CCOCCCNC(=O)c1c(NC(=O)Cc2coc3ccc(C)cc23)sc2c1CCC2,inactive: -19.7%
14,CC(C)c1ccc(OCC(O)CN2CCN(c3ccc(F)cc3)CC2)cc1 (configuration not stated),inactive: -29.4%
15,CCCCNS(=O)(=O)c1ccc2nc(-c3cccnc3)cc(C(=O)NCCOC)c2c1,inactive: -10.7%
16,CCC1CCCCN1C(=O)Cn1c(=O)cc(C(F)(F)F)c2c(C)nn(C)c21 (configuration not stated),inactive: -5.45%
17,O=C1c2[nH]nc(-c3ccccc3O)c2C(c2ccc(F)cc2)N1CCO (configuration not stated),inactive: -13.9%
18,COc1ccc(OC)c(NC(=O)Cc2c(C(=O)O)n(C)c3ccc(C)cc23)c1,inactive: -11.9%
19,CCOC(=O)c1c(C)sc(-c2c(-c3ccc(OC)c(F)c3)[nH]c3[nH]c(=O)[nH]c(=O)c23)c1O,inactive: -2.77%
20,COC(=O)c1cnn(-c2ccc(C(=O)Nc3cc(OC)c(OC)c(OC)c3)cc2)c1N,inactive: -16.1%
21,COc1ccc(-c2nc(SCC(=O)N3CCCCC3C)n[nH]2)cc1 (configuration not stated),inactive: -27.4%
22,CCc1cccc(C)c1Nc1c(-c2cccc(O)c2)nc2nc(C)cc(C)n12,inactive: -29.1%
23,CCc1ccc(-n2c(=O)c3c(C)c(C(=O)N(C)C)sc3n(Cc3ccccc3C#N)c2=O)cc1,inactive: -1.34%
24,Cc1ccc(CN(Cc2ccco2)C(=O)c2ccc(Cl)cc2)o1,inactive: -35.3%
25,OCCN1CCN(CCCN2c3ccccc3C=Cc3ccccc32)CC1,inactive: -1.32%
26,C=CCNc1nc(NCC=C)nc(N2CCN(C(c3ccc(F)cc3)c3ccc(F)cc3)CC2)n1,inactive: -23.7%
27,COc1ccc(NC(=O)Cn2c(=O)n(Cc3ccc(C(=O)NCc4ccccc4Cl)cc3)c(=O)c3ccccc32)cc1,inactive: 4.34%
